Measured values: patent US12616716B2, “Wound healing dressings and formulations and methods of use thereof” (Polaroid IP B.V., priority 2023, dated 2026)

What was measured:
Test in all cases: MBC, spot plating after 24 h in MH broth
Set-up in all cases: key: —: no activity observed
Conditions in all cases: Table 18; —: no activity observed
[1] = tested on: Klebsiella pneumoniae KL1
Excerpt: (§1) Results are presented as CFU per mL.

[2] = tested on: Pseudomonas aeruginosa 27853
Excerpt: as §1

[3] = tested on: Enterococcus faecalis EF51299
Excerpt: as §1

[4] = tested on: Staphylococcus aureus MR1
Excerpt: as §1

Escherichia coli EC25922 = tested on: Escherichia coli EC25922
Excerpt: as §1

[5] = tested on: Staphylococcus aureus ATCC 29213
Excerpt: as §1

[6] = tested on: Enterococcus faecalis EF19433
Excerpt: as §1

CCCCCCCCCCCCCCCCCC[N+](C)(C)CCOCCO.[Br-] [Compound 39637_105543]
—: MBC KL1 [1] | MBC PA27853 [2] | MBC EF51299 [3]

CCCCCCCCCCCCCCCCCC[N+](C)(C)CCOCCO.[Br-] [Compound 39637_109466]
—: MBC PA27853 [2]

CCCCCCCCCCCC[N+](C)(C)CCOCCO.[Br-] [Compound 40597_109444]
—: MBC MR1 [4] | MBC KL1 [1] | MBC EC25922 (Escherichia coli EC25922) | MBC PA27853 [2] | MBC SA29213 [5] | MBC EF19433 [6] | MBC EF51299 [3]

CCCCCC[N+](C)(C)CCOCCO.[Br-] [Compound 40598_109448]
—: MBC MR1 [4] | MBC KL1 [1] | MBC EC25922 (Escherichia coli EC25922) | MBC PA27853 [2] | MBC SA29213 [5] | MBC EF19433 [6] | MBC EF51299 [3]
